# Results: PubChem BioAssay AID1768 (National Center for Advancing Translational Sciences (NCATS), 2009)
# Out of some 270,000 compounds screened, about 620 (0.23%) were called active. The inconclusive results got no clear call from the source; some entries with a clear call stand among them for comparison. The call rests on the fitted dose curve; in most records, active means well fitted inhibition curve with a large enough effect in the polarisation, with a control signal flat (not every such curve was filed as active); inconclusive means small, poorly fitted or top-dose-only effect, or effect the other way, or a change in a side signal; inactive means no such curve, though single readings can be large or run the other way; the % refers to the polarisation. A potency beside an inconclusive call is a rough fit, not a confirmed value. A note “side channel” means that the fit belongs to a control or component signal, not to the main read-out.
# Target: Menin (Homo sapiens) (UniProt O00255)
# UniProt O00255, sequence (O00255 whole entry, looked up): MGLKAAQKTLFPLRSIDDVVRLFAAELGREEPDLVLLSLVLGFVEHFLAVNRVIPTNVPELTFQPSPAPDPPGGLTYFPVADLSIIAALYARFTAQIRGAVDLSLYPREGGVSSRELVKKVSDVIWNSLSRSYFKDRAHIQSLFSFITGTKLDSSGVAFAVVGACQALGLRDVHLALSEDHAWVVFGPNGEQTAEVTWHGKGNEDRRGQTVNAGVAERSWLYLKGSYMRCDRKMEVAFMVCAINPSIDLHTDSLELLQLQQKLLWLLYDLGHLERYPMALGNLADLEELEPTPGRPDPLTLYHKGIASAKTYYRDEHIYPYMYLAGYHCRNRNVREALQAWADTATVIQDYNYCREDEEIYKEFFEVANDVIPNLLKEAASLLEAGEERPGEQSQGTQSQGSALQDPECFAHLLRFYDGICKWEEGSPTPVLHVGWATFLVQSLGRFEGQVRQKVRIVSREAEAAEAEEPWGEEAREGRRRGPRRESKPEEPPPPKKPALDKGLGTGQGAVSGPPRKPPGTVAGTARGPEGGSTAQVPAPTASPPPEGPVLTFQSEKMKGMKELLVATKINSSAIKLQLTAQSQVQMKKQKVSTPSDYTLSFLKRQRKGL
# Experiment: qHTS Assay for Inhibitors Targeting the Menin-MLL Interaction in MLL Related Leukemias: Competition With Texas Red Labeled MLL-derived Mutant Peptide; on FP activity change, negative = inhibition: % of control where 0% means no effect
# Settings: fluorescence polarization; FP activity change, negative = inhibition: at 61.6 µM (top of the series)
# Potency means the concentration at half of the fitted maximal effect; tags describe the fitted curve by direction and shape or compound fluorescence and quenching.
SMILES,Potency,"FP activity change, negative = inhibition"
CCOC(=O)C1CCCN(CC(=O)c2ccc(F)cc2)C1 (configuration not stated),"inconclusive: 1.26 µM [inhibitor, full curve, poor fit]",–
CCCCC(=O)NNC(=S)NC(=O)CCC,"inconclusive: 0.794 µM [inhibitor, full curve, poor fit]",–
CCOc1c(C)cc(-c2ncccc2O)cc1C,inactive,–
O=C1CC(NNc2ccccc2)C(=O)N1c1ccc(N2CCCCC2)cc1 (configuration not stated),"inconclusive: 25.1 µM [quencher, side channel, partial curve]",–
O=C(Nc1cccc2nsnc12)c1ccc(-c2ccc(Br)cc2)o1,"inconclusive: 28.2 µM [quencher, side channel, single point]",–
COc1cccc(NC(=O)CN2C(=O)NC(C)(CCC(C)C)C2=O)c1 (configuration not stated),"inconclusive: 2.82 µM [fluorescent, side channel, full curve]",–
CCN1/C(=C\C=C2\C(=O)N(C)C(=S)N2C)Sc2ccccc21,"inconclusive: 4.47 µM [fluorescent, side channel, single point]",–
O=C(c1ccc(COc2ccccc2[N+](=O)[O-])o1)N1CCCCC1,"inconclusive: 10 µM [fluorescent, side channel, partial curve]",–
COC(=O)c1cn[nH]c1NC(=S)Nc1ccc(C)cc1Cl,"inconclusive: 7.94 µM [quencher, side channel, partial curve]",–
Cc1ccc(CNC(=O)CSc2ccc(-c3cccs3)nn2)cc1,"inconclusive: 28.2 µM [inhibitor, single point]",–
O=C(CN1c2ccccc2Sc2ccccc21)NNC(=S)Nc1ccc(Cl)cc1Cl,"inconclusive: 12.6 µM [quencher, side channel, partial curve]",–
Cc1ccc(OCC(=O)N/N=C/c2c[nH]c3ccccc23)c([N+](=O)[O-])c1,"inconclusive: 22.4 µM [quencher, side channel, single point]",–
CC/C=C\C/C=C\C/C=C\C/C=C\C/C=C\C/C=C\CCC(N)=O,–,inactive: -6.66%
CC(C)CNC(=O)c1ccc2c(c1)C(=O)N(C1CCCCC1)C2=O,"inconclusive: 31.6 µM [inhibitor, single point]",–
O=C(COC(=O)c1cc(NS(=O)(=O)c2cccs2)ccc1O)Nc1ccc(F)c(F)c1F,"inconclusive: 22.4 µM [quencher, side channel, partial curve]",–
COC(=O)c1c(N)n(CCCN2CCOCC2)c2nc3ccccc3nc12,"inconclusive: 39.8 µM [inhibitor, single point]",–
COCCCn1c(SCC(=O)OC2CCCCC2)nnc1-c1cccs1,"inconclusive: 22.4 µM [fluorescent, side channel, partial curve]",–
O=C(O)c1ccc(-n2nnnc2SCc2cccc(Br)c2)cc1,"inconclusive: 28.2 µM [quencher, side channel, single point]",–
Cc1nc(N)sc1N=Nc1ccc(Br)cc1,"inconclusive: 15.8 µM [quencher, side channel, partial curve]",–

SMILES,Potency,"FP activity change, negative = inhibition"
CCOC(=O)C1CCN(C(=O)Nc2ccc3nccnc3c2)CC1,–,inactive: 0.353%
O=C(COc1ccccc1Cl)Nc1ccc(C(=O)c2ccc(C(=O)O)cc2)cc1,"inconclusive: 15.8 µM [quencher, side channel, partial curve]",–
O=C(Nc1nc(-c2ccccc2)c(C(=O)c2ccccc2)s1)c1ccc(S(=O)(=O)N2CCCC2)cc1,"inconclusive: 35.5 µM [inhibitor, partial curve]",–
Fc1ccccc1COc1ccc(Br)cc1CNCc1cccnc1,"inconclusive: 15.8 µM [fluorescent, side channel, single point]",–
Cc1cc(/C=c2/sc3nc4ccccc4n3c2=O)c(C)n1-c1ccccn1,"inconclusive: 7.08 µM [quencher, side channel, full curve]",–
CCc1cccc2c(C(=O)Cn3nnc(-c4ccc(OC)c(OC)c4)n3)c[nH]c12,"inconclusive: 3.16 µM [quencher, side channel, full curve, poor fit]",–
O=C(NCc1cccs1)Nc1ccc(Cl)cc1,"inconclusive: 31.6 µM [inhibitor, single point]",–
Cc1cccc(N(C(=O)Cc2cccs2)C(C(=O)NC2CCCC2)c2ccncc2)c1 (configuration not stated),–,inactive: -7.83%
O=C(/C=C/c1c(Cl)cccc1Cl)Nc1ccncc1,"inconclusive: 10 µM [quencher, side channel, partial curve]",–
COC(=O)c1cc(NS(=O)(=O)c2ccc(N3CCCCC3)c([N+](=O)[O-])c2)cc(C(=O)OC)c1,"inconclusive: 28.2 µM [quencher, side channel, single point]",–
COc1ccc(NC(=S)N2CCC(C(=O)c3ccc(OC)cc3)CC2)cc1,"inconclusive: 28.2 µM [quencher, side channel, single point]",–
COc1ccccc1CNC(=O)C(NC(=O)Nc1ccccc1)C(C)C (configuration not stated),"inconclusive: 39.8 µM [fluorescent, side channel, single point]",–
COc1ccc(/C=C/C(=O)Nc2ccc(S(=O)(=O)Nc3onc(C)c3C)cc2)cc1OC,"inconclusive: 28.2 µM [quencher, side channel, partial curve]",–
O=C1CC(c2ccco2)Cc2nc(N3CCN(Cc4ccc5c(c4)OCO5)CC3)ncc21 (configuration not stated),"inconclusive: 14.1 µM [inhibitor, partial curve]",–
Cn1c(=NC(=O)COc2ccccc2)sc2ccccc21,"inconclusive: 11.2 µM [fluorescent, side channel, partial curve]",–
CC1CCCN(CCCNC(=O)c2coc3nc4ccccc4nc23)C1 (configuration not stated),"inconclusive: 22.4 µM [inhibitor, single point]",–
CC(=O)NCCNc1nc2c(-c3ccccc3)nnn2c2ccccc12,"inconclusive: 0.891 µM [inhibitor, full curve]",–
Cc1cc(-c2csc(NC(=O)c3cccc(S(=O)(=O)N(C)C)c3)n2)c(C)n1-c1ccccc1,"inconclusive: 17.8 µM [quencher, side channel, partial curve]",–
O=C(Cc1ccc(Cl)cc1Cl)Nc1cccc(S(=O)(=O)Nc2ccccc2F)c1,"inconclusive: 28.2 µM [quencher, side channel, single point]",–

SMILES,Potency,"FP activity change, negative = inhibition"
Cc1cccc(NC(=O)CC2NCCNC2=O)c1 (configuration not stated),"inconclusive: 35.5 µM [quencher, side channel, single point]",–
COc1ccc(-c2cc(C(=O)O)c3sc(N4CCCCC4)nc3n2)cc1OC,–,inactive: -0.961%
N=c1c(C(=O)NCc2ccc(F)cc2)cc2c(=O)n3ccccc3nc2n1CC1CCCO1 (configuration not stated),–,inactive: 1.84%
COc1ccccc1C1CC(c2ccco2)=NN1c1ccccc1 (configuration not stated),"inconclusive: 10 µM [quencher, side channel, partial curve]",–
O=C(CC1C(=O)NCCN1Cc1ccccc1C(F)(F)F)NC1CCCCC1 (configuration not stated),"inconclusive: 39.8 µM [quencher, side channel, single point]",–
Cc1nn(-c2ccc(Cl)cc2)c(=O)c2ccccc12,–,inactive: -3.03%
S=C(NCc1ccccc1Cl)Nc1ccccc1Cl,"inconclusive: 39.8 µM [quencher, side channel, single point]",–
COc1cc2c(cc1OC)C(COc1ccc(F)cc1)N(C(=O)c1ccco1)CC2 (configuration not stated),"inconclusive: 12.6 µM [inhibitor, single point]",–
Nc1ccc(N2CCOCC2)c(S(=O)(=O)Nc2cc(Cl)ccc2Cl)c1,"inconclusive: 28.2 µM [quencher, side channel, partial curve]",–
Cc1nn2c(N)c(-c3ccccc3)cnc2c1-c1ccc(Cl)cc1,"inconclusive: 10 µM [quencher, partial curve]",–
O=c1cc(-c2cc(O)c(O)c([C@@H]3O[C@H](CO)[C@@H](O)[C@H](O)[C@H]3O)c2)oc2cc(O[C@@H]3O[C@H](CO)[C@@H](O)[C@H](O)[C@H]3O)cc(O)c12,"inconclusive: 22.4 µM [quencher, side channel, single point]",–
O=C(Nc1nc(-c2ccccc2)cs1)c1cccc([N+](=O)[O-])c1,"inconclusive: 12.6 µM [quencher, side channel, partial curve]",–
COC(=O)c1ccccc1NS(=O)(=O)c1ccc2c3c(cccc13)C(=O)N2,"inconclusive: 31.6 µM [quencher, side channel, single point]",–
CCC(C)c1ccc(NC(=O)c2cnn3c(C(F)F)cc(C)nc23)cc1 (configuration not stated),"inconclusive: 10 µM [fluorescent, side channel, partial curve]",–
COC(=O)CN1C(=O)[C@@H]2[C@H](C1=O)[C@@H]1CC(C(=O)OC)=C[C@@H](C(=O)OC)C3C1=C(C(=O)[C@@]3(C)NC(=O)c1ccccc1)[C@@H]2C (some centres not stated),"inconclusive: 8.91 µM [inhibitor, single point]",–
Cc1ccccc1NS(=O)(=O)c1ccc(OCC(=O)N2CCCC2)cc1,–,inactive: -0.111%
Cc1ccc(C(O)(c2ccccc2)c2ccccc2C(C)N(C)C)c(C)c1 (configuration not stated),"inconclusive: 5.62 µM [inhibitor, full curve, poor fit]",–
Cn1c(=O)c2c(nc(N3CCN(c4ccccc4)CC3)n2CCCc2ccccc2)n(C)c1=O,"inconclusive: 6.31 µM [fluorescent, side channel, partial curve]",–
Cc1ccc(NC(=O)CNS(=O)(=O)c2cccs2)cc1F,"inconclusive: 25.1 µM [quencher, side channel, single point]",–
